Screen size: about 410,000 compounds; about 6,400 (1.6%) were called active. This list was built around the results that the source calls inconclusive (neither active nor inactive); the mix of calls is not that of the screen. Calls follow the shape of the dose curve; as a rule, active = well fitted inhibition curve with a large enough effect; inconclusive = small, poorly fitted or top-dose-only effect; inactive = no such curve, though single readings can be large or run the other way. Potencies of inconclusive entries are doubtful fits and often do not repeat.
target: Glucagon-like peptide 1 receptor (Homo sapiens) (UniProt P43220); test: qHTS of GLP-1 Receptor Inverse Agonists (Inhibition Mode); conditions: HEK293 GLP-1R CRE-luciferase, luminescence, 24 h, GLP-1R form is constitutively active; activity change, negative = inhibition: at 38.3 µM (top of the series) unless noted; also: nearly all actives have a fitted effect of over 55% in size
Outline: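 Inverse agonists were sought by their lowering of basal cAMP reporter luciferase output in HEK293 cells stably carrying constitutively active human GLP-1R, after 24 h compound treatment.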
% is scaled to controls: 0 for no effect and ±100 for the full control effect; potency is read from the fitted curve at half-maximal effect; tags tell the direction and shape of the fitted curve.

Sequence of UniProt P43220 (P43220 whole entry, looked up): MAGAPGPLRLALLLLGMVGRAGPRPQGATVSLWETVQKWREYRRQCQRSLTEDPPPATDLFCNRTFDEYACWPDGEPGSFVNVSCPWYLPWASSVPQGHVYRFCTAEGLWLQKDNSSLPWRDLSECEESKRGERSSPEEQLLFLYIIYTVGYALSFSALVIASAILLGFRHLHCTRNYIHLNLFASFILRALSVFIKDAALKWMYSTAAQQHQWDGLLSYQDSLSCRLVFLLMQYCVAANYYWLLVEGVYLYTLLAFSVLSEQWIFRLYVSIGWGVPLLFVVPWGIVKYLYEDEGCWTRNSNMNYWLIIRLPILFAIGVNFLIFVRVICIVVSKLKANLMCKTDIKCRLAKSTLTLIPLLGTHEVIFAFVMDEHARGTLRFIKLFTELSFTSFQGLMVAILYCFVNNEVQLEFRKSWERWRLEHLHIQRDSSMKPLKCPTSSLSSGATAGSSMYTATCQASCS

Potency, inconclusive:
CCN(CC)S(=O)(=O)c1cc(C)ccc1NC(=S)Nc1cccnc1 28.2 µM [inhibitor, partial curve, poor fit]
COc1cc(OC)c2c(-c3cccc(-c4ccc(OC)c(F)c4)c3)cc(=O)oc2c1 0.501 µM [inhibitor, full curve, poor fit]
Cc1ccc(NC(=O)CN(C)S(=O)(=O)c2ccc3[nH]c4c(c3c2)CCCC4)c(Cl)c1 28.2 µM [inhibitor, single point]
Cc1cc(C)c2nc(-c3cccnc3)cc(C(=O)Nc3ccc(S(=O)(=O)Nc4onc(C)c4C)cc3)c2c1 28.2 µM [inhibitor, single point]
CC(C)CCNC(=O)CN1C(=O)NC(c2ccccc2)(c2ccccc2)C1=O 22.4 µM [inhibitor, single point]
c1ccc(-c2noc(C34CC5CC(CC(C5)C3)C4)n2)cc1 10 µM [inhibitor, single point]
Cc1nn(C2CCCCC2)c(N)c1-c1ccccc1 28.2 µM [inhibitor, single point]
C#CCN(Cc1ccco1)C(=O)c1ccc(OC2CCN(Cc3ccccn3)CC2)cc1 10 µM [inhibitor, partial curve, poor fit]
CCCN(C(=O)CCc1nc(-c2ccc(OC)cc2)no1)c1ccccc1F 28.2 µM [inhibitor, single point]
COc1ccc(C(=O)Nn2c(SCC(=O)c3ccccc3)nc3ccccc3c2=O)cc1 10 µM [inhibitor, partial curve]
COc1cc(OC)cc(C(=O)N[C@H](C(=O)Nc2nc(-c3ccc(OC)c(OC)c3)cs2)C(C)C)c1 3.98 µM [inhibitor, partial curve, poor fit]
CN(C)C(=S)NC(=S)Nc1ccc2ccccc2c1 2.24 µM [inhibitor, full curve, poor fit]
O=C(CCl)Nc1ccc(N2CCCCCC2)cc1 28.2 µM [inhibitor, single point]
Cc1ccc(Sc2ccc(C(=O)N3CCOCC3)cc2[N+](=O)[O-])cc1 28.2 µM [inhibitor, single point]
c1ccc(COc2ccc(-c3cc4nc(NCCOc5ccccc5)ccn4n3)cc2)cc1 2 µM [inhibitor, partial curve, poor fit]

Activity change, negative = inhibition, inactive:
Cc1oc(-c2ccccc2F)nc1CS(=O)(=O)CC(=O)NCCc1ccc(Cl)cc1 12.5%
Cc1c(Cl)cccc1NC(=S)NCc1ccc2c(c1)OCO2 -32.5%
